{"source": "paper PMC5076566", "about": "(Cell, 2016)", "proteins": {"B1": {"name": "Recombinant human vimentin Δtail ([…] AA) (domain or fragment)", "chain": "not shown"}}, "molecular_target": "the molecule itself", "assay": "filament assembly seen by transmission electron microscopy", "data": [{"protein": "B1", "values": [{"measurement": "binding result", "result": "binds"}]}]}
